Laboratory results: the DeepSol protein solubility set

Test: soluble on expression in E. coli; label from the status in PepcDB or PDB records

Sequence | soluble on expression in E. coli
MGHHHHHHSHPMYRSRSWRRKYVRTPGGRVVVHFERKKPKIAHCAICGRPLNGIPRGRPVEMRKLPKTKKRPERPMPYLCPRCMRRVMKEQIRSQ | not soluble
ASPDWGYDDKNGPEQWSKLYPIANGNNQSPVDIKTSETKHDTSLKPISVSYNPATAKEIINVGHSFHVNFEDNDNRSVLKGGPFSDSYRLFQFHFHWGSTNEHGSEHTVDGVKYSAELHVAHWNSAKYSSLAEAASKADGLAVIGVLMKVGEANPKLQKVLDALQAIKTKGKRAPFTNFDPSTLLPSSLDFWTYPGSLTHPPLYESVTWIICKESISVSSEQLAQFRSLLSNVEGDNAVPMQHNNRPTQPLKGRTVRASF | soluble
MTNSKGYRRGTRDMFSRPFRKHGVIPLSTYMRVFKIGDIVDIKGHGAVQKGLPYKAYHGKTGRIFNVTQHAVGVIVNKRVRGKILAKRVNVRIEHIHHSKCREDFLRRVKENERLLKEAKEKGQWVSLKRQPEQPKKAHFVKKLEEPIALAPIPYEFIALEHHHHHH | soluble
MIPADAPPPTNIGRTNTYGGDLISGPVIPRRERRQSSSMFNISQNRELQRLPAIKDADPSERETLFIQKLRQCCVVFDFANDALSDLKFKEVKRAALNELVDHVSGAPKGSLSDAVYPEAIGMFSTNLFRPLSPPTNPIGAEFDPDEDEPTLEAAWPHLQLVYEFFLRFLECPDFQSQVAKRYIDQNFILRLLMIMDSEDPRERDFLKTTLHRIYGKFLGHRAYIRKQINNIFYSFIYETERHNGIAELLEILGSIINGFALPLKEEHKTFLLRVLLPLHKVKSLSVYHPQLAYCVVQFIEKDSSLTEPVISGMLRFWPKQHSPKEVMFLNELEEVLDVIEPNEFQKIMTPLFSQIARCVSSPHFQVAERALYYWNNEYVMSLVADNARVIIPIMFPVLFKNSKSHWNKTIHGLIYNALKMFMEMNQKLFDECSQAYQKDRVQEKTLNEEKERIWNNIEKQAMGNPQYVEVKALFARFNPDEIISSRQQNGVDENMKTSTVLSKDEILKNAVGVSSMKNDMDFGPNHKQSDFPPDEQTTRALGEYKRHDPFLKKVTSTDEQ | not soluble
LAERGLRKVRVGKVTSDKMDKTVVVSIETSEKHPLYKKFVKRTYKLKAHDENNECKIGDIVKVMETRPLSKEKRWRVVEIIERAR | not soluble
MPITKEEKQKVMQEFARFPGDTGSTEVQVALLTLRINRLSEHLKVHKKDHHSHRGLLMMVGQRRRLLRYLQREDPERYRMLIEKLGIRG | soluble
